# Data: PubChem BioAssay AID624172 (National Center for Advancing Translational Sciences (NCATS), 2012)
# About 25 (0.007%) of roughly 380,000 compounds were called active. This list was built around the results that the source calls inconclusive (neither active nor inactive); the mix of calls is not that of the screen. Calls follow the shape of the dose curve; as a rule, active = well fitted activation curve with a large enough effect; inconclusive = small, poorly fitted or top-dose-only effect; inactive = no such curve, though single readings can be large or run the other way. No potency is given beside an inconclusive call; the fits are too rough.
# Target: Glucagon-like peptide 1 receptor (Homo sapiens) (UniProt P43220)
# Chain of UniProt P43220 (P43220 whole entry, looked up): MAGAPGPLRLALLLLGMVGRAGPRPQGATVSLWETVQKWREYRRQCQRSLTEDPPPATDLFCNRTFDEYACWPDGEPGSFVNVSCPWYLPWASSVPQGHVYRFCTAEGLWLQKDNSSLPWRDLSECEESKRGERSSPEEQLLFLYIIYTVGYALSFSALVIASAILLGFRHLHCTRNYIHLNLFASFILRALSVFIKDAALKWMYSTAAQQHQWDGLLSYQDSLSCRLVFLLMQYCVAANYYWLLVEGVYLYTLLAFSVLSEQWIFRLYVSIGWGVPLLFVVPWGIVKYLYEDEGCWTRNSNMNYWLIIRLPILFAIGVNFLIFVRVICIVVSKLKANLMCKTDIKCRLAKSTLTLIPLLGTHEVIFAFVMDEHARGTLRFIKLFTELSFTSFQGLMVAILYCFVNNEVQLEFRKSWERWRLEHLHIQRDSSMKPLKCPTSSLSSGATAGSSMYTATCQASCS
# Experiment: qHTS of GLP-1 Receptor Agonists; as to activation: % of control where 0% means no effect
# Conditions: HEK293 GLP-1R CRE-luciferase, luminescence, 4-6 h, cells express a hypersensitive GLP-1R form; activation: at 45.6 µM (top of the series) unless noted
# Potency is read from the fitted curve at half-maximal effect; tags tell the direction and shape of the fitted curve.
Structure (SMILES),Potency,activation
CN(C)c1ccc(C(=S)N2CCCC2)cc1Br,inactive,–
CCOc1ccc(-n2c(-c3ccccc3)c(C)n3c4c(=O)n(C)c(=O)n(C)c4nc23)cc1,"inconclusive [activator, single point]",–
Cc1ccc(OCCNC(=O)c2ccc3ccccc3n2)cc1,"inconclusive [activator, single point]",–
c1cc(N2CCCCC2)nc(N2CCCCC2)n1,inactive,–
O=[N+]([O-])c1cccc(CNc2ccc3c(c2)CCC3)c1,"inconclusive [activator, partial curve, poor fit]",–
Cc1cccc2nc(CSc3nnnn3-c3ccccc3)cn12,"inconclusive [activator, single point]",–
Cc1ccccc1Nc1nc(N)nc(-c2oc3ccccc3c2C)n1,"inconclusive [activator, partial curve]",–
COc1ccc(Cl)cc1NC(=O)CSc1nc(N2CCOCC2)nc(N2CCOCC2)n1,"inconclusive [activator, single point]",–
CCC(C(=O)NC1CCCC1)N(C(=O)Cn1nnc(-c2ccc(OC)c(OC)c2)n1)c1cccc(O)c1 (stereo not given),"inconclusive [activator, partial curve, poor fit]",–
COc1cc(C2C3=C(CCCC3=O)Nc3ccc4ncccc4c32)ccc1O (stereo not given),"inconclusive [activator, single point]",–
CCC(=O)N1CCc2cc(OC)c(OC)cc2C1COc1ccc(OC)cc1 (stereo not given),"inconclusive [activator, partial curve]",–
COc1cccc(CNC(=O)c2cccnc2Sc2ccccc2)c1,"inconclusive [activator, partial curve, poor fit]",–
C=CCn1c(SCc2c(C)noc2C)nc2sc3c(c2c1=O)CCCC3,"inconclusive [activator, partial curve, poor fit]",–
O=[N+]([O-])c1cc(Br)c(O)c(C=Nc2ccc(N3CCOCC3)cc2)c1,inactive,–
CCNC(=O)c1ccc(-n2nc(C)cc2-c2ccccc2)cc1,"inconclusive [activator, single point]",–
C=CCSc1cc(C)nc2c(-c3ccccc3)c(C)nn12,"inconclusive [activator, partial curve, poor fit]",–
Cn1c(=N)n(CC(=O)C(C)(C)C)c2ccccc21,"inconclusive [activator, single point]",–
Cc1cccc(C)c1NC(=O)C1c2ccccc2OCC(=O)N1CCCN1CCOCC1 (stereo not given),inactive,–
Cn1ccc2c(-c3ccc(CO)cc3)cc3c(c21)C1CCC3C1 (stereo not given),inactive,–
O=C(NC1CCCC1)C(c1ccccc1)N(C(=O)c1ccco1)C1CCCC1 (stereo not given),inactive,–
CC(=O)C[C@H](O)CC(=O)[C@H]1OC(=O)[C@H](C)CCCCc2ccccc21,inactive,–
CCOC(=O)c1c(C)[nH]c(C(=O)N2CCc3cc(OC)c(OC)cc3C2)c1C,"inconclusive [activator, partial curve, poor fit]",–
CC(C)(C)Sc1ccc2nc3c(n2c1)CCCC3,"inconclusive [activator, single point]",–

Structure (SMILES),Potency,activation
COc1ccc(N2CCN(C(=O)CSc3ccccc3)CC2)cc1,"inconclusive [activator, single point]",–
O=C(CCCCn1c(=O)c2ccccc2n(Cc2ccc(F)cc2Cl)c1=O)NCc1ccco1,"inconclusive [activator, full curve, poor fit]",–
CC(C)c1nc(Cl)c(C#N)c2c1COC(C)(C)C2,"inconclusive [activator, partial curve]",–
COc1ccc(Cc2nn3c(-c4cc(OC)c(OC)c(OC)c4)nnc3s2)cc1,"inconclusive [activator, partial curve, poor fit]",–
O=C(CCCCCNC(=O)c1ccccc1)N/N=C/c1ccccc1,–,inconclusive: 38.5% [activator]
OC(CNCc1cccc(Br)c1)c1ccccc1 (stereo not given),"inconclusive [activator, partial curve, poor fit]",–
O=S(=O)(NCC(Nc1ccc(Cl)cc1)c1ccccc1)c1ccc(Cl)cc1 (stereo not given),inactive,–
O=C(COc1coc(CN2CCc3ccccc3C2)cc1=O)N1CCOCC1,inactive,–
CC(=O)c1ccc2c3c(cc(C)c2c1)CCCC3,"inconclusive [activator, single point]",–
Cn1nc(C(=O)OCC(=O)NCc2ccc(Cl)cc2Cl)c2ccccc2c1=O,inactive,–
CCc1cc(C(=O)NCC(c2ccco2)N2CCCCC2)sc1C (stereo not given),inactive,–
COc1ccc(NS(=O)(=O)c2cccc(C(=O)N/N=C/c3cccs3)c2)cc1,inactive,–
CCOC(=O)NCc1ccc(Cl)c(Cl)c1,inactive,–
Cc1cc(N2CCN(C)CC2)nc2ccc(NC(=S)N3CCN(c4ccc(Cl)cc4)CC3)cc12,inactive,–
Cc1cccc(NC(=S)NC(=O)/C=C/c2ccco2)c1,"inconclusive [activator, single point]",–
CC(=O)Nc1ccc(NC(=O)c2cc(C3CC3)nc3c2cnn3C(C)C)cc1,"inconclusive [activator, partial curve]",–
CC(=O)c1cccc(S(=O)(=O)N2CCCC(c3nc(-c4ccc(C)o4)no3)C2)c1 (stereo not given),"inconclusive [activator, single point]",–
COc1ccc(/C=C2\SC(N3CCCCC3)=NC2=O)cc1OC,"inconclusive [activator, partial curve]",–
CCOC(=O)C1=CCN(S(=O)(=O)c2ccc(C)cc2)C1c1cccc(Cl)c1 (stereo not given),inactive,–
COc1ccc(N2CCOCC2)c(NC(=O)c2cc3ccccc3o2)c1,"inconclusive [activator, partial curve, poor fit]",–
Cc1cccn2c(=O)c3cc(C#N)c(=NC(=O)c4ccccc4)n(Cc4ccco4)c3nc12,inactive,–
CCOCCCn1c(=N)c(S(=O)(=O)c2ccc(C)cc2)cc2c(=O)n3ccccc3nc21,"inconclusive [activator, single point]",–
